From the supplement of paper PMC3334620
Whole data set: some 33,000 sequences, median “E-score (-0.5 to 0.5)” near -0.036, cut for the highest 2% near 0.37. The list shows a part of the results.

Each sequence was assayed against T1, Yer064c (UniProt P40041) (assay: PBM E-score (8-mer binding enrichment) (E-score (-0.5 to 0.5)); higher = stronger / more preferred TF binding; most listed sequences are background and not binding sites). Conditions: protein concentration: 200 nM; construct: GST-full length.
T1 sequence: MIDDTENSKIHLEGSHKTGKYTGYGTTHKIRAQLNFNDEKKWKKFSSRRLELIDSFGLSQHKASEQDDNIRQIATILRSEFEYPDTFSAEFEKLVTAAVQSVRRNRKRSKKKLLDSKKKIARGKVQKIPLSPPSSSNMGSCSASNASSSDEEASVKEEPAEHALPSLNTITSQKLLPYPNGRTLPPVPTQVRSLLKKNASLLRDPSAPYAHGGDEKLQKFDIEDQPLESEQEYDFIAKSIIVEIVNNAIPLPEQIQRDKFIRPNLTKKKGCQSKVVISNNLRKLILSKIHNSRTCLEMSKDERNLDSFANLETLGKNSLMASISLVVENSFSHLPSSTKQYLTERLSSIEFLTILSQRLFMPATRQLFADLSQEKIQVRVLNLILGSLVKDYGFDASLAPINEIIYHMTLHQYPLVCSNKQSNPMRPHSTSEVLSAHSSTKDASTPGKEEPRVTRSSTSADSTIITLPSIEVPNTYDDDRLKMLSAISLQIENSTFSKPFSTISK
Method in brief: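 The E-score, a modified Wilcoxon-Mann-Whitney statistic, was computed by the Universal PBM Analysis Suite for every ungapped eight-base word pooled with its reverse complement. Scans behind it were normalised with masliner after bound GST-tagged yeast transcription factors were detected with fluorescent anti-GST. The proteins, at about 100-200 nM, had been applied to universal all-10-mer Agilent arrays made double-stranded by primer extension.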
For AAATCCGA, the “PBM E-score” value was 0.00534. In the case of GTGACCTA, the “PBM E-score” value is reported as 0.0665. CGCTGATC was tested, and the “PBM E-score” value was -0.0444. CCCCATAC was tested, and the “PBM E-score” value was -0.176. In the case of CCTTGTAC, the “PBM E-score” value is reported as -0.0911. AGCTCAGG was tested, and the “PBM E-score” value was 0.102. With AGTTTTGG the “PBM E-score” value was -0.056. For CCAACGGA, the “PBM E-score” value was -0.28. For AGCGCACT, the “PBM E-score” value was -0.188. ACCATCGG was tested, and the “PBM E-score” value was 0.033. AACGATCT was tested, and the “PBM E-score” value was -0.0857. For GCTACTCA, the “PBM E-score” value was 0.224. ATACAGGA was tested, and the “PBM E-score” value was -0.1. For ACCGCGTA, the “PBM E-score” value was -0.151. With CTCAACTC the “PBM E-score” value was 0.0537. AGAAACTC was tested, and the “PBM E-score” value was 0.0151. For CCGGTCAC, the “PBM E-score” value was 0.0146. With AGGGACCA the “PBM E-score” value was -0.164. In the case of AGTCTACC, the “PBM E-score” value is reported as 0.196. With ACTGTTAG the “PBM E-score” value was 0.103. GCTCCGCC was tested, and the “PBM E-score” value was -0.184. GCACGAGC was tested, and the “PBM E-score” value was -0.168. With ACGTTCGG the “PBM E-score” value was -0.111. AGAAACAT was tested, and the “PBM E-score” value was -0.0247. GCATAGAC was tested, and the “PBM E-score” value was -0.0303. AGGACAGC was tested, and the “PBM E-score” value was -0.109. For GACACCCC, the “PBM E-score” value was 0.0388. CACTAACC was tested, and the “PBM E-score” value was -0.153. For ACAAGTGA, the “PBM E-score” value was 0.11. In the case of CGAAGTGA, the “PBM E-score” value is reported as 0.178. AAGACGAT was tested, and the “PBM E-score” value was -0.0404. For ATGAGCAA, the “PBM E-score” value was 0.102. In the case of GCGTACTA, the “PBM E-score” value is reported as 0.0745. With AGCGCGCC the “PBM E-score” value was -0.341. With AAAGGTAC the “PBM E-score” value was 0.0276. In the case of AATCGATG, the “PBM E-score” value is reported as 0.196. For ATACTGAG, the “PBM E-score” value was 0.171. For CATGTCAC, the “PBM E-score” value was -0.0241. In the case of TCCCCCGA, the “PBM E-score” value is reported as -0.176. With CCAAAATA the “PBM E-score” value was 0.0881. With ATGCGAAG the “PBM E-score” value was -0.0967. With ATCCGAGG the “PBM E-score” value was 0.103. AGGTTGCA was tested, and the “PBM E-score” value was -0.138. CAGGCCAG was tested, and the “PBM E-score” value was -0.188. For CCAGGAGG, the “PBM E-score” value was -0.203. With AAATCGAA the “PBM E-score” value was -0.104. In the case of GATGGTTA, the “PBM E-score” value is reported as 0.343. For CAGACAAG, the “PBM E-score” value was -0.0699. With ATTAGAAG the “PBM E-score” value was 0.132. For CAACAGAA, the “PBM E-score” value was 0.109. With CTAAATGC the “PBM E-score” value was 0.0741. With GGGGGAAA the “PBM E-score” value was -0.361. With AAAGGGAA the “PBM E-score” value was 0.111. In the case of CAGTATAC, the “PBM E-score” value is reported as 0.185. With AACGAATG the “PBM E-score” value was 0.0336. For CGGGGTTC, the “PBM E-score” value was -0.169. With CAAATACG the “PBM E-score” value was -0.144. ATTCAGCA was tested, and the “PBM E-score” value was 0.228. For CAAAGAGC, the “PBM E-score” value was -0.11. For GGAGCCCC, the “PBM E-score” value was -0.339. CTTTTCAA was tested, and the “PBM E-score” value was 0.0744. For GAAAATAC, the “PBM E-score” value was -0.116. In the case of CGTAGACA, the “PBM E-score” value is reported as -0.0345. TGCCCCAA was tested, and the “PBM E-score” value was 0.0126. For GAGGTTAC, the “PBM E-score” value was 0.00602. In the case of CGCCGAGC, the “PBM E-score” value is reported as -0.123. With CCTTGTGC the “PBM E-score” value was -0.043. In the case of CCGTAAAG, the “PBM E-score” value is reported as -0.0714. With AAATCATG the “PBM E-score” value was 0.385. CTGGTGGA was tested, and the “PBM E-score” value was -0.0161. With GGCGCCCA the “PBM E-score” value was -0.127. In the case of ATAGCCTA, the “PBM E-score” value is reported as 0.00883. With ATAACGGA the “PBM E-score” value was -0.0212. In the case of AGGCTTAT, the “PBM E-score” value is reported as 0.0335. For GCTGCTAA, the “PBM E-score” value was -0.0595. AATACAGG was tested, and the “PBM E-score” value was -0.138. For CGTGCAAC, the “PBM E-score” value was 0.0096. GTCTTAGA was tested, and the “PBM E-score” value was 0.162. For ACGCGCCC, the “PBM E-score” value was -0.175. For GTTGGCTA, the “PBM E-score” value was -0.135. AACAGATC was tested, and the “PBM E-score” value was -0.107. For GGGTTACC, the “PBM E-score” value was -0.17. For CCAGTCCG, the “PBM E-score” value was -0.241. For CCATTATC, the “PBM E-score” value was -0.0156. In the case of TAATCAGA, the “PBM E-score” value is reported as 0.35. For CATTTCAC, the “PBM E-score” value was -0.0472.
